# Test results from the supplement of paper PMC8728848.
# The list shows a part of the results.
# How the values were obtained:
# Assay in all cases: glycan array binding signal (z-score within array); higher = stronger binding
# Conditions in all cases: glycan notation: IUPAC condensed, linker removed
# [1] = biological target: Gal(b1-4)GlcNAc(b1-3)Gal(b1-4)GlcNAc(b1-2)[Gal(b1-4)GlcNAc(b1-3)Gal(b1-4)GlcNAc(b1-6)]Man(a1-6)[Gal(b1-4)GlcNAc(b1-3)Gal(b1-4)GlcNAc(b1-2)Man(a1-3)]Man(b1-4)GlcNAc(b1-4)GlcNAc
# How it was run: (§1)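 Arrays were curated from the Consortium for Functional Glycomics database, 3228 in total, and kept only where the protein sequence was available. Binding is expressed as a within-array Z-score. This score was averaged across arrays of the same protein sequence at different concentrations or buffers and across linkers, and negative values can be read as non-binding.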
# [2] = biological target: Gal(b1-4)GlcNAc(b1-3)Gal(b1-4)GlcNAc(b1-2)[Gal(b1-4)GlcNAc(b1-3)Gal(b1-4)GlcNAc(b1-6)]Man(a1-6)[Gal(b1-4)GlcNAc(b1-3)Gal(b1-4)GlcNAc(b1-2)Man(a1-3)]Man(b1-4)GlcNAc(b1-4)[Fuc(a1-6)]GlcNAc
# How it was run: as §1
# [3] = biological target: Gal(b1-4)GlcNAc(b1-3)Gal(b1-4)GlcNAc(b1-3)Gal(b1-4)GlcNAc
# How it was run: as §1
# [4] = biological target: Gal(b1-4)GlcNAc(b1-3)Gal(b1-4)GlcNAc(b1-3)Gal(b1-4)GlcNAc(b1-2)Man(a1-3)[Gal(b1-4)GlcNAc(b1-3)Gal(b1-4)GlcNAc(b1-3)Gal(b1-4)GlcNAc(b1-2)Man(a1-6)]Man(b1-4)GlcNAc(b1-4)GlcNAc
# How it was run: as §1
# [5] = biological target: Gal(b1-4)GlcNAc(b1-3)Gal(b1-4)GlcNAc(b1-3)Gal(b1-4)GlcNAc(b1-2)Man(a1-3)[Gal(b1-4)GlcNAc(b1-3)Gal(b1-4)GlcNAc(b1-3)Gal(b1-4)GlcNAc(b1-2)Man(a1-6)]Man(b1-4)GlcNAc(b1-4)[Fuc(a1-6)]GlcNAc
# How it was run: as §1
# [6] = biological target: Gal(b1-4)GlcNAc(b1-3)Gal(b1-4)GlcNAc(b1-3)Gal(b1-4)GlcNAc(b1-2)[Gal(b1-4)GlcNAc(b1-3)Gal(b1-4)GlcNAc(b1-3)Gal(b1-4)GlcNAc(b1-6)]Man(a1-6)[Gal(b1-4)GlcNAc(b1-3)Gal(b1-4)GlcNAc(b1-3)Gal(b1-4)GlcNAc(b1-2)Man(a1-3)]Man(b1-4)GlcNAc(b1-4)[Fuc(a1-6)]GlcNAc
# How it was run: as §1
# [7] = biological target: Gal(b1-4)GlcNAc(b1-3)Gal(b1-4)GlcNAc(b1-3)Gal(b1-4)GlcNAc(b1-3)Gal(b1-4)GlcNAc(b1-2)Man(a1-3)[Gal(b1-4)GlcNAc(b1-3)Gal(b1-4)GlcNAc(b1-3)Gal(b1-4)GlcNAc(b1-3)Gal(b1-4)GlcNAc(b1-2)Man(a1-6)]Man(b1-4)GlcNAc(b1-4)GlcNAc
# How it was run: as §1
# [8] = biological target: Gal(b1-4)GlcNAc(b1-3)Gal(b1-4)GlcNAc(b1-3)Gal(b1-4)GlcNAc(b1-3)Gal(b1-4)GlcNAc(b1-2)Man(a1-3)[Gal(b1-4)GlcNAc(b1-3)Gal(b1-4)GlcNAc(b1-3)Gal(b1-4)GlcNAc(b1-3)Gal(b1-4)GlcNAc(b1-2)Man(a1-6)]Man(b1-4)GlcNAc(b1-4)[Fuc(a1-6)]GlcNAc
# How it was run: as §1
# [9] = biological target: Gal(b1-4)GlcNAc(b1-3)Gal(b1-4)GlcNAc(b1-3)Gal(b1-4)GlcNAc(b1-3)Gal(b1-4)GlcNAc(b1-2)[Gal(b1-4)GlcNAc(b1-3)Gal(b1-4)GlcNAc(b1-3)Gal(b1-4)GlcNAc(b1-3)Gal(b1-4)GlcNAc(b1-6)]Man(a1-6)[Gal(b1-4)GlcNAc(b1-3)Gal(b1-4)GlcNAc(b1-3)Gal(b1-4)GlcNAc(b1-3)Gal(b1-4)GlcNAc(b1-2)Man(a1-3)]Man(b1-4)GlcNAc(b1-4)[Fuc(a1-6)]GlcNAc
# How it was run: as §1
# [10] = biological target: Gal(b1-4)GlcNAc(b1-3)Gal(b1-4)GlcNAc(b1-3)Gal(b1-4)GlcNAc(b1-3)Gal(b1-4)GlcNAc(b1-3)Gal(b1-4)GlcNAc(b1-2)Man(a1-3)[Gal(b1-4)GlcNAc(b1-3)Gal(b1-4)GlcNAc(b1-3)Gal(b1-4)GlcNAc(b1-3)Gal(b1-4)GlcNAc(b1-3)Gal(b1-4)GlcNAc(b1-2)Man(a1-6)]Man(b1-4)GlcNAc(b1-4)GlcNAc
# How it was run: as §1
# [11] = biological target: Gal(b1-4)GlcNAc(b1-3)Gal(b1-4)GlcNAc(b1-3)Gal(b1-4)GlcNAc(b1-3)Gal(b1-4)GlcNAc(b1-3)Gal(b1-4)GlcNAc(b1-2)Man(a1-3)[Gal(b1-4)GlcNAc(b1-3)Gal(b1-4)GlcNAc(b1-3)Gal(b1-4)GlcNAc(b1-3)Gal(b1-4)GlcNAc(b1-3)Gal(b1-4)GlcNAc(b1-2)Man(a1-6)]Man(b1-4)GlcNAc(b1-4)[Fuc(a1-6)]GlcNAc
# How it was run: as §1
# [12] = biological target: Gal(b1-4)GlcNAc(b1-3)Gal(b1-4)GlcNAc(b1-3)Gal(b1-4)GlcNAc(b1-3)Gal(b1-4)GlcNAc(b1-3)Gal(b1-4)GlcNAc(b1-2)[Gal(b1-4)GlcNAc(b1-3)Gal(b1-4)GlcNAc(b1-3)Gal(b1-4)GlcNAc(b1-3)Gal(b1-4)GlcNAc(b1-3)Gal(b1-4)GlcNAc(b1-6)]Man(a1-6)[Gal(b1-4)GlcNAc(b1-3)Gal(b1-4)GlcNAc(b1-3)Gal(b1-4)GlcNAc(b1-3)Gal(b1-4)GlcNAc(b1-3)Gal(b1-4)GlcNAc(b1-2)Man(a1-3)]Man(b1-4)GlcNAc(b1-4)[Fuc(a1-6)]GlcNAc
# How it was run: as §1
# [13] = biological target: Gal(b1-4)GlcNAc(b1-3)Gal(b1-4)GlcNAc(b1-3)Gal(b1-4)GlcNAc(b1-3)Gal(b1-4)GlcNAc(b1-3)Gal(b1-4)GlcNAc(b1-3)Gal(b1-4)GlcNAc(b1-2)Man(a1-3)[Gal(b1-4)GlcNAc(b1-3)Gal(b1-4)GlcNAc(b1-3)Gal(b1-4)GlcNAc(b1-3)Gal(b1-4)GlcNAc(b1-3)Gal(b1-4)GlcNAc(b1-3)Gal(b1-4)GlcNAc(b1-2)Man(a1-6)]Man(b1-4)GlcNAc(b1-4)GlcNAc
# How it was run: as §1
# [14] = biological target: Gal(b1-4)GlcNAc(b1-3)Gal(b1-4)GlcNAc(b1-3)GalNAc
# How it was run: as §1
# [15] = biological target: Gal(b1-4)GlcNAc(b1-3)Gal(b1-4)GlcNAc(b1-3)[Gal(b1-4)GlcNAc(b1-3)Gal(b1-4)GlcNAc(b1-6)]GalNAc
# How it was run: as §1
# [16] = biological target: Gal(b1-4)GlcNAc(b1-3)Gal(b1-4)GlcNAc(b1-6)[Gal(b1-3)]GalNAc
# How it was run: as §1
# [17] = biological target: Gal(b1-4)GlcNAc(b1-3)Gal(b1-4)[Fuc(a1-3)]GlcNAc(b1-3)Gal(b1-4)[Fuc(a1-3)]GlcNAc
# How it was run: as §1
# [18] = biological target: Gal(b1-4)GlcNAc(b1-3)GalNAc
# How it was run: as §1
# [19] = biological target: Gal(b1-4)GlcNAc(b1-3)[Fuc(a1-3)GlcNAc(b1-6)]Gal(b1-4)Glc
# How it was run: as §1
# [20] = biological target: Gal(b1-4)GlcNAc(b1-3)[Gal(b1-4)GlcNAc(b1-6)]Gal(b1-4)GlcNAc
# How it was run: as §1
# [21] = biological target: Gal(b1-4)GlcNAc(b1-3)[GlcNAc(b1-6)]Gal(b1-4)GlcNAc
# How it was run: as §1
# [22] = biological target: Gal(b1-4)GlcNAc(b1-6)Gal(b1-4)GlcNAc
# How it was run: as §1
binder,measurement,setting,value
PX9961H-bth-557-24-557 (Bacteroides thetaiotaomicron) (protein) EETRTEVEKKNYMNNAEEAKDVLLGVYRTNTLDAMYGYYLSILFNLGTDISQVEGSGNENFRIIPTNSFPTTQSEVQQTWAALYTGIYRANDFLERISNKIGSYTTTDKKLATLYIAEARALRGMFYFELVRRFGNVVLMTSTQMSNQNPATYVQSAPEKVYEYIEDDLLYACDILPYATDDQYRESNDYRFSKGAALGLLTKVYATWAGYPVKDESKWEAAAKTARILVESGKHGLLKDYEQLWKNTCNGTWDPTESLIEISFYSPTVSGNSDPVGRIGKWNGVKTTAIAGVRGSCAANVKVVHTFVLDWREDVSDIRRDLSIANYQYTDTKKSLWVAGASDTDESAAEKDADPTKAQKNKQNYTPAKWDIQKYVTTNSFINNDKSNVNWYFLRYADVLLLYAEALNEWKHGPDAEAYNAINAVRRRGYGNPSNTSACDLPQGLDETSFREAVRKERSYELSFEGHRRQDLIRWGIYYKTVQATAKELGYWWEGTGSPNYSVATYTEEGKHELFPIPQRDMDLCIQFNQNPKW,glycan array binding signal (z-score),[1],0.778
same,glycan array binding signal (z-score),[2],3.59
same,glycan array binding signal (z-score),[3],0.096
same,glycan array binding signal (z-score),[4],2.56
same,glycan array binding signal (z-score),[5],-0.234
same,glycan array binding signal (z-score),[6],3.08
same,glycan array binding signal (z-score),[7],2.76
same,glycan array binding signal (z-score),[8],1.18
same,glycan array binding signal (z-score),[9],0.661
same,glycan array binding signal (z-score),[10],5.22
same,glycan array binding signal (z-score),[11],0.542
same,glycan array binding signal (z-score),[12],4.46
same,glycan array binding signal (z-score),[13],2.62
same,glycan array binding signal (z-score),[14],2.16
same,glycan array binding signal (z-score),[15],-0.116
same,glycan array binding signal (z-score),[16],2.67
same,glycan array binding signal (z-score),[17],-0.312
same,glycan array binding signal (z-score),[18],-0.585
same,glycan array binding signal (z-score),[19],-0.407
same,glycan array binding signal (z-score),[20],0.044
same,glycan array binding signal (z-score),[21],-0.479
same,glycan array binding signal (z-score),[22],0.053
